# Reference: ChEMBL document CHEMBL4888484, “Replenishing the malaria drug discovery pipeline: Screening and hit evaluation of the MMV Hit Generation Library 1 (HGL1) against asexual blood stage Plasmodium falciparum ,using a nano luciferase reporter read-out” (2022)
# The campaign covered roughly 150,000 compounds. About 540 (0.36%) showed an effect of 50% or more. This is one part of the list.
# Test system: Plasmodium falciparum
# Test: Primary screen in NF54 nanoGlo assay, in single point, at 2uM, 72h; a lower Z score goes with more inhibition
# Assay type: functional, Erythrocyte
# Details: timepoint 72 hour
SMILES,% Inhibition [%],Z score,% Inhibition (2 µM) [%],Z score (2 µM)
c1cc(-c2cc(C3CCN(c4cnccn4)CC3)n[nH]2)ccn1,5,-0.61,–,–
CN(C[C@H]1CCCCO1)C(=O)c1cc(F)c(F)c(O)c1F,-3,0.34,–,–
COCC1(C(=O)O)CCN(C(=O)NC2CCc3[nH]c4ccc(C)cc4c3C2)C1 (stereo not drawn),-1,0.2,–,–
CCn1c(CC2CCNCC2)nn(Cc2cccc3cccnc23)c1=O,-4,0.69,–,–
CC(=O)N1CCc2cc(S(=O)(=O)N3CC(=O)N4CCc5ccccc5[C@@H]4C3)ccc21,2,-0.27,–,–
O=C(COc1ccc(Cl)cc1Cl)N(C1CCCC1)[C@H]1CCS(=O)(=O)C1,-22,4.1,–,–
C[C@@H](Cn1cncn1)NCC1(N2CCOCC2)CCCCCC1,-10,1.85,–,–
CCc1ccc(-c2c(-c3ccccc3)ncn2Cc2ncc[nH]2)o1,-5,0.46,–,–
Nc1nc(CNC(=O)c2cncs2)cs1,-7,1.4,–,–
Cc1cc(C)c(C#N)c(-c2cccc(C(=O)N[C@@H](C)c3nc(C4CC4)no3)c2)n1,11,-1.79,–,–
Cc1cc(C(=O)N2CCC(Cc3ccccc3)CC2)ccc1N(C)S(C)(=O)=O,-9,1.55,–,–
CCc1noc(COCC(=O)N2CCc3cc(C)c(C)cc32)n1,-13,2.56,–,–
COC[C@H]1[C@H](NS(=O)(=O)c2c(C)cnn2C)[C@H]2CCO[C@H]21,-25,2.54,–,–
Cc1oncc1CN1CCN(C(=O)c2cccc(F)c2)CC1,-1,0.1,–,–
COc1cccc([C@@H]2CNC(=O)c3nc(-c4nccn4C(C)C)[nH]c3C2)c1,1,-0.26,–,–
O=C(NS(=O)(=O)c1cc(Cl)sc1Cl)c1ccc2c(c1)OCO2,6,-0.77,–,–
O=C(NCC1(C(F)(F)F)CC1)[C@H]1CCc2[nH]ncc2C1,-9,1.04,–,–
O=C(Nc1ccn2ccnc2c1)N1Cc2ncccc2N2CCC[C@H]2C1,-3,0.3,–,–
O=C(c1nn[nH]c1Nc1ccccc1F)N1CCN(C2CCCCC2)CC1,-8,0.97,–,–
O=C(c1cc(Br)ccc1O)N1CCC(C(=O)N2CCCC2)CC1,-10,1.15,–,–
CCN(Cc1cn(C)nn1)C(=O)c1scnc1C(C)C,6,-0.84,–,–

SMILES,% Inhibition [%],Z score,% Inhibition (2 µM) [%],Z score (2 µM)
CN(CC(F)F)C(=O)c1cnc(OCC2CC2)c(Cl)c1,-6,0.86,–,–
COc1cccc(Cc2nc(CC(=O)NC3CCCCC3)no2)n1,-9,1.8,–,–
CN(c1nc2c(c(N3CCOCC3)n1)CN(S(=O)(=O)c1cccc(Cl)c1)CC2)C1CCCCC1,-1,0.18,–,–
Cc1nc(C)c(-c2cccc(C(=O)N(C)Cc3ccccc3CN(C)C)c2)[nH]1,-8,0.76,–,–
Cc1ccc([C@@]2(O)C[n+]3ccccc3N2Cc2ccccc2)cc1,–,–,-3,4.05
CC1CN(C(=O)c2ccc3c(c2)C(C)(C)CO3)C1,9,-1.09,–,–
CC1(CO)CN(C(=O)Nc2cccnc2-c2ccco2)C1,-5,0.68,–,–
N#CCCN(Cc1csc(-c2ccoc2)n1)C1CCOCC1,-13,1.75,–,–
COc1cncc(CN(CC(C)C)C2CC2)c1,1,-0.1,–,–
CC(C)[C@@]1(CO)CCCN(Cc2cncc(F)c2)C1,-14,2.83,–,–
C[C@H](Oc1ccc(-c2ccccc2)cc1)C(=O)NC1CCS(=O)(=O)CC1,-2,0.2,–,–
CCn1ncc2c1NC(=O)C[C@@H]2Cc1ccccc1,-11,1.36,–,–
CN1OCC(S(=O)(=O)NCc2cccc(C(F)(F)F)c2)C1c1cccc(OCc2ccccc2)c1 (stereo not drawn),-3,0.41,–,–
CCC(=O)N1CCN(C(=O)[C@@H]2CCCO2)CC1,-12,1.15,–,–
Cc1ccc(S(=O)(=O)N2CCN(Cc3ccccc3)CCN(S(=O)(=O)c3ccc(C)cc3)CCN(S(=O)(=O)c3ccc(C)cc3)CC2)cc1,-13,2.46,–,–
COc1nc2c(cc1CNC(=O)c1occc1C)C(=O)N(C1CCCC1)C2,-9,0.84,–,–
CCc1ccc2nc(-c3ccc[nH]3)[nH]c(=O)c2c1,-4,0.59,–,–
Cc1ccc(Cl)cc1CNC(=O)N1CC[C@H](S(C)(=O)=O)C1,-12,2.08,–,–
O=C(COc1ccc2ccccc2c1)N1CCC[C@H](O)C1,-9,1.64,–,–
CCOc1ccc(C(=O)N2CCC[C@H](C(=O)Nc3nccs3)C2)cc1OCC,-10,0.87,–,–
CC(C)c1cc(C(=O)N2CC[C@@](O)(C3CCOCC3)[C@H](C)C2)cs1,-4,0.7,–,–

SMILES,% Inhibition [%],Z score,% Inhibition (2 µM) [%],Z score (2 µM)
N#Cc1c(C2CC2)n[nH]c1NC(=O)C[C@H]1CCOC1,5,-0.67,–,–
Cc1nonc1CNC(=O)NC[C@H]1C[C@@H]1c1ccccc1,-2,0.3,–,–
COc1ccc(-c2cc(N3CCC[C@H](NC(=O)c4cc(C)cc(C)c4)C3)[nH]n2)cc1,-26,2.67,–,–
Cn1ncnc1CNC(=O)NC1CC1c1cccc(Cl)c1Cl (stereo not drawn),-8,0.94,–,–
C[C@]1(Cc2ccc3c(c2)OCO3)CCCN(C(=O)Cn2ccc(=O)cc2)C1,-4,0.34,–,–
C=C(C)C(=O)Nc1ccc(Cl)c(Cl)c1,3,-0.36,–,–
N#Cc1cnn(CC#Cc2ccc(F)cc2)c1,-8,0.79,–,–
O=C(c1cccn2c(=O)c3ccc(Cl)cc3nc12)N1CCN(Cc2ccc3c(c2)OCO3)CC1,15,-1.81,–,–
Cn1c2c(c(=O)n(C)c1=O)CC[C@@H](c1ccccc1)O2,-2,0.22,–,–
Cc1nccc(N2CCC[C@@]3(CCC(=O)N(CCc4ccccn4)C3)C2)n1,-10,2.03,–,–
CO[C@@H](C)c1nc(CC(=O)N2CCCc3cc(C(C)(C)C)ccc32)cs1,-8,0.86,–,–
CCOCC1(CNC(=O)c2cccnc2OC)CCC1,1,-0.27,–,–
CN(C)c1ncn(-c2cccc(NCc3csc4ccccc34)c2)n1,1,-0.08,–,–
O=S(=O)(NCc1ccncc1OC[C@H]1CCOC1)c1cnn(CC2CC2)c1,-9,1.21,–,–
CC(=O)N[C@H]1C[C@H]2CN(S(=O)(=O)c3cccc(F)c3)CC(=O)N2C1,-24,2.14,–,–
O=C(CCCC(=O)n1cnc2ccccc21)n1cnc2ccccc21,8,-0.96,–,–
c1ccc2c(c1)CC(Oc1nnc(C3CC3)s1)C2,-9,1.71,–,–
Cc1cnc(CNc2ccc(Cl)cn2)o1,-13,1.33,–,–
CN(C(=O)NC1CCOCC1)[C@@H](c1ccccc1)c1ccccn1,-11,1.1,–,–
COc1ccc(CN(C)CC(=O)Nc2ccc(OCc3ccccc3)cc2)c(OC)c1,4,-0.85,–,–
COc1ccc(CCN[C@@H](C)Cn2cnc(C)c2C)cc1OC,-9,1.08,–,–

SMILES,% Inhibition [%],Z score,% Inhibition (2 µM) [%],Z score (2 µM)
CC1=C[C@@H](CNCc2cccnc2)[C@H](C(C)C)C[C@H]1Cc1nc2cccnc2[nH]1,43,-1.69,–,–
O=C(Nc1cccc(Cl)c1F)N1CC(F)(F)C[C@H]1CN1CCCCCC1,-16,2.73,–,–
CCn1ccnc1CN(C)C(=O)c1cc(C)oc1C,-15,1.84,–,–
Cc1ccc(-c2[nH]c([C@H]3CC(=O)N(C4CCCC4)C3)nc2C)s1,-16,2.35,–,–
O=C(CC1CCCC1)Nc1ccccc1C(=O)N1CCCCC1,-6,1.12,–,–
CCC(=O)Nc1ccc(Cl)c(NCc2ccn(C)c(=O)c2)c1,0,-0.06,–,–
Cc1cc(C(=O)Nc2nc(C(=O)N[C@@H](C)c3ccccc3)co2)no1,9,-1.24,–,–
CC(C)(C)c1nnc(NCCc2nccs2)s1,-4,0.82,–,–
CC1CCC2C(CCCN2C(=O)COc2ccc(CC(N)=O)cc2)C1 (stereo not drawn),-19,2.97,–,–
O=C(N[C@@H](Cc1ccccc1)C(=O)N1CCC2(CC1)NCCc1[nH]cnc12)c1ccco1,-11,2.13,–,–
COc1ccc(-n2cc([C@H](C)Nc3nccc(C)n3)cn2)cc1,-6,1.01,–,–
CC(C)[C@@H]1CN(Cc2c(C(=O)O)oc3ccccc23)CCCO1,-5,0.77,–,–
C#CCCC1(CCC(=O)Nc2cccc3c2CCNC3=O)N=N1,-13,1.61,–,–
O=S(=O)(c1ccc2c(c1)CCO2)N1CC[C@H](Oc2ncccn2)C1,-19,2.96,–,–
Fc1ccc(-c2cnc3nn[nH]c3c2)c2ncccc12,-9,1.81,–,–
COC(CNC(=O)OC(C)(C)C)C(=O)Nc1cccc(C(=O)N2CCCC(CO)C2)c1 (stereo not drawn),-11,1.32,–,–
COc1cccc(CNCC(=O)N2CCC(Cc3ccccc3)CC2)c1,-3,0.53,–,–
CC(C)c1ccc(CS(=O)(=O)NC(=O)CCc2cccnc2)cc1,1,-0.08,–,–
CCc1cn(CC2CCC3(CC2)OCCO3)ccc1=O,-9,1.01,–,–
COC1CCC(C(=O)N2CC[C@H]3[C@H](CCC(=O)N3CC(C)C)C2)CC1 (stereo partly drawn),-3,0.41,–,–
Cn1cnc(C(=O)N2CCC[C@H](CCCc3ccccc3)C2)c1,-10,1.15,–,–
